Source: publication PMC7619307, “The Golgi vesicle tether p115 can bind directly to the ER exit site organiser Sec16A” (Journal of cell science, 2026)
Substitutions are numbered along the chain they refer to. In names and notes the source's numbering stands. These are yes or no findings as the source states them, for the method shown. For some of these results: In cells and extracts the contact can be indirect. Some binding calls cover weakened binding; strength is not graded here. For some of these results: Tags and fused reporters may be left off the sequences shown.

The chains behind the UniProt entries cited, without tags or fusion partners. Where a name states a change or a piece, a line headed by the entry shows the natural chain unless it says otherwise. Residues count along the entry.
UniProt O15027: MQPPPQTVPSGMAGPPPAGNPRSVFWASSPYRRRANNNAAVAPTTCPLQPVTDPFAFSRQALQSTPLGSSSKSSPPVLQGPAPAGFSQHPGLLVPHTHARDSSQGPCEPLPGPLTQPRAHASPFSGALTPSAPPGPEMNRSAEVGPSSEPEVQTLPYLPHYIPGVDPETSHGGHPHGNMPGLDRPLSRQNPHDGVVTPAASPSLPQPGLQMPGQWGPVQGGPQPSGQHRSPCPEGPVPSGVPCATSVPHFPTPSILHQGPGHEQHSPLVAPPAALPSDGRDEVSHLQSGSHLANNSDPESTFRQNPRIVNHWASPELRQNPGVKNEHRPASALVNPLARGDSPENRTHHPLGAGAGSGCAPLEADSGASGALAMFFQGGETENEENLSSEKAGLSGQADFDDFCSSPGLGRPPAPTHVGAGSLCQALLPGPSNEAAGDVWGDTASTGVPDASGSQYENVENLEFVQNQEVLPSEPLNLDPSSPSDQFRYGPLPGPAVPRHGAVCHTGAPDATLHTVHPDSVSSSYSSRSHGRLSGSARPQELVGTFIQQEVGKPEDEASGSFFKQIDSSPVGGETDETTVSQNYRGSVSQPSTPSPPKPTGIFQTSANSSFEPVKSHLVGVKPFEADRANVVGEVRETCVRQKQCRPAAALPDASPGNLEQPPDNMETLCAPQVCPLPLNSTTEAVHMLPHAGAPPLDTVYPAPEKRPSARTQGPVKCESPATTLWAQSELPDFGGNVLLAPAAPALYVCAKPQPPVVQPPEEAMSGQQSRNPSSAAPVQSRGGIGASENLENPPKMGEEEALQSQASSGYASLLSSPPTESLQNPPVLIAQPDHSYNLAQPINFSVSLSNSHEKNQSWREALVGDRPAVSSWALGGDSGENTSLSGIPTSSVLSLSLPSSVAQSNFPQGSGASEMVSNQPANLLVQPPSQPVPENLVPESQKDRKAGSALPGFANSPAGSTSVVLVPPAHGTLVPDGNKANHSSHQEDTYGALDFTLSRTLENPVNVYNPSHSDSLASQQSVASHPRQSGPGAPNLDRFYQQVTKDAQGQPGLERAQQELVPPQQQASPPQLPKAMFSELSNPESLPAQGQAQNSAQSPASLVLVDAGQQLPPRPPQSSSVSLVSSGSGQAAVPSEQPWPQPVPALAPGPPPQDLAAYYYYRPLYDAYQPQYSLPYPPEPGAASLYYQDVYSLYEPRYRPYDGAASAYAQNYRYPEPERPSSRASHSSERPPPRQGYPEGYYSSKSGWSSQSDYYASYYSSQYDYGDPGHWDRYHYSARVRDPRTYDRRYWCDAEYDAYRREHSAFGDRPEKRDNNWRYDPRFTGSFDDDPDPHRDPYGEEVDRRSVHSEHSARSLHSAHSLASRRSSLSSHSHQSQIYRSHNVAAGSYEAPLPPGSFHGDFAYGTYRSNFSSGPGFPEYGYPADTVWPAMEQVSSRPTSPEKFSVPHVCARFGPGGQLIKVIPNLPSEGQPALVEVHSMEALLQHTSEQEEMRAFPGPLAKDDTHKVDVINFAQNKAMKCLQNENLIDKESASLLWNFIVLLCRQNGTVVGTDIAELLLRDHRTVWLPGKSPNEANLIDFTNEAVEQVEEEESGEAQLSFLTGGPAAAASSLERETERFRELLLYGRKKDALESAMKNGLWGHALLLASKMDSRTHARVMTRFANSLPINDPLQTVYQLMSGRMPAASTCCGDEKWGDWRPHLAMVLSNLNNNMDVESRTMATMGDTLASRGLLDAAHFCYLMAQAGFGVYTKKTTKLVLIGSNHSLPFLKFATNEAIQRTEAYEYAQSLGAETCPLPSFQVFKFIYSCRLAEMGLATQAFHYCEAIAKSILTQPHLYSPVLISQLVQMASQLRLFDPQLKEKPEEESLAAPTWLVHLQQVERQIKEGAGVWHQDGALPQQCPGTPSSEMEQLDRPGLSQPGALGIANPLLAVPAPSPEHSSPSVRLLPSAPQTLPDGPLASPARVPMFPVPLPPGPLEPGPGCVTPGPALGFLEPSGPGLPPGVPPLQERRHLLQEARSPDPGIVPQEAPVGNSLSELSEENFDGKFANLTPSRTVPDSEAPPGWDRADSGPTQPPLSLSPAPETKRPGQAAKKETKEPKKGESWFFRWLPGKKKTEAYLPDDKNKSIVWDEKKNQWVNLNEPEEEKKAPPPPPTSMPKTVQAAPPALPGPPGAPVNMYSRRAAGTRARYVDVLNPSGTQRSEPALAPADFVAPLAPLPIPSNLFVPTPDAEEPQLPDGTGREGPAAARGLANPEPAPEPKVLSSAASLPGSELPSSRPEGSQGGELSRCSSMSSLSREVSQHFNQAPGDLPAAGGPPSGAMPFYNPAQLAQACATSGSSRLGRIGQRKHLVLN
Sec16A (650–776)–GFP: residues 650-776 of O15027

T1: p115(1–655)–HA–MAO (human) (UniProt O60763)
T1 sequence: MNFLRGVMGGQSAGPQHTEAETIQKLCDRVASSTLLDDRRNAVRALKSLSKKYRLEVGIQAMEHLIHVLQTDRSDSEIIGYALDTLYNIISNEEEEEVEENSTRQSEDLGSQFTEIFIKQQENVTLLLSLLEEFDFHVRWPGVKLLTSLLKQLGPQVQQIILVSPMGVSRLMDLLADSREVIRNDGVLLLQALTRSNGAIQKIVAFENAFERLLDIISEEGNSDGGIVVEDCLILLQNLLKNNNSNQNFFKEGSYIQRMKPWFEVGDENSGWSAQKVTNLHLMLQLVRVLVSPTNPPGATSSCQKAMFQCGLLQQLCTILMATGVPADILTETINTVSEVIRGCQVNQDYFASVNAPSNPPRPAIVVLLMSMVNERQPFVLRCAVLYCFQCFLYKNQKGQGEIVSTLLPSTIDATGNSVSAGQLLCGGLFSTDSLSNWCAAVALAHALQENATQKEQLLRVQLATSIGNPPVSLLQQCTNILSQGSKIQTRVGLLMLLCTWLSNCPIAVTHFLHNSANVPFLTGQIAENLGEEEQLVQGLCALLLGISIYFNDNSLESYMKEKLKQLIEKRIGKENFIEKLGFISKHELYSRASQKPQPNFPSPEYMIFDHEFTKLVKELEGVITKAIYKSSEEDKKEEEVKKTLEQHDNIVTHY

B1: endogenous p115 (HeLa) (protein, UniProt O60763 1-962)
chain: MNFLRGVMGGQSAGPQHTEAETIQKLCDRVASSTLLDDRRNAVRALKSLSKKYRLEVGIQAMEHLIHVLQTDRSDSEIIGYALDTLYNIISNEEEEEVEENSTRQSEDLGSQFTEIFIKQQENVTLLLSLLEEFDFHVRWPGVKLLTSLLKQLGPQVQQIILVSPMGVSRLMDLLADSREVIRNDGVLLLQALTRSNGAIQKIVAFENAFERLLDIISEEGNSDGGIVVEDCLILLQNLLKNNNSNQNFFKEGSYIQRMKPWFEVGDENSGWSAQKVTNLHLMLQLVRVLVSPTNPPGATSSCQKAMFQCGLLQQLCTILMATGVPADILTETINTVSEVIRGCQVNQDYFASVNAPSNPPRPAIVVLLMSMVNERQPFVLRCAVLYCFQCFLYKNQKGQGEIVSTLLPSTIDATGNSVSAGQLLCGGLFSTDSLSNWCAAVALAHALQENATQKEQLLRVQLATSIGNPPVSLLQQCTNILSQGSKIQTRVGLLMLLCTWLSNCPIAVTHFLHNSANVPFLTGQIAENLGEEEQLVQGLCALLLGISIYFNDNSLESYMKEKLKQLIEKRIGKENFIEKLGFISKHELYSRASQKPQPNFPSPEYMIFDHEFTKLVKELEGVITKAIYKSSEEDKKEEEVKKTLEQHDNIVTHYKNMIREQDLQLEELRQQVSTLKCQNEQLQTAVTQQVSQIQQHKDQYNLLKIQLGKDNQHQGSYSEGAQMNGIQPEEIGRLREEIEELKRNQELLQSQLTEKDSMIENMKSSQTSGTNEQSSAIVSARDSEQVAELKQELATLKSQLNSQSVEITKLQTEKQELLQKTEAFAKSVEVQGETETIIATKTTDVEGRLSALLQETKELKNEIKALSEERTAIKEQLDSSNSTIAILQTEKDKLELEITDSKKEQDDLLVLLADQDQKILSLKNKLKDLGHPVEEEDELESGDQEDEDDESEDPGKDLDHI
B2: endogenous p115 (HEK293T) (protein, UniProt O60763 1-962)
chain: B1 chain
B3: FLAG-tagged p115 head domain (1–655) with the Q462D mutation (domain or fragment, UniProt O60763 1-655)
chain: T1 sequence with Q462D

Assays:
[1] = target: T1, p115(1–655)–HA–MAO (human); experiment: mitochondrial relocation assay (confocal microscopy); one partner anchored on mitochondria in HeLa cells (HA–MAO chimera); relocation of the endogenous or co-expressed partner to mitochondria seen by immunofluorescence or GFP
[2] = target: mitochondrial form of Sec16A (650–776) (human) (UniProt O15027); experiment: as above
[3] = target: Sec16A (650–776)–GFP (human) (UniProt O15027); experiment: co-IP; GFP-tagged protein expressed in HEK293T cells, precipitated on GFP-Trap agarose (lysis with 150 mM NaCl, 0.5% Triton X-100; washes with 300 mM NaCl; 4°C); endogenous partner detected by immunoblot
[4] = target: Sec16A (650–776)–GFP (human) (UniProt O15027); experiment: pull-down; direct binding assay: FLAG-tagged protein eluted from anti-FLAG beads (1 M NaCl wash, 3×FLAG peptide) was incubated for 1 h at 4°C with GFP-tagged protein held on GFP-Trap beads after harsh washes (1% SDS; 1 M NaCl, 1% Triton X-100); washes with 300 mM NaCl; immunoblot; both purified

Row | Molecule | binding [1] | further results
1 | Sec16A (511–1101)–GFP (from UniProt O15027 511-1101) (domain or fragment) | binds | 
2 | GFP–Sec16A (1101–1890) (from UniProt O15027 1101-1890) (domain or fragment) | no binding | 
3 | GFP–Sec16A (1891–2357) (from UniProt O15027 1891-2357) (domain or fragment) | no binding | 
4 | GFP–Sec16A (1–1101) (from UniProt O15027 1-1101) (domain or fragment) | binds | 
5 | B1 |  | binding [2]: binds
6 | B2 |  | binding [3]: binds
7 | B3 |  | binding [4]: no binding
